Test results: PubChem BioAssay AID493208 (National Center for Advancing Translational Sciences (NCATS), 2011)
In all, about 44,000 compounds went through this assay and about 340 (0.77%) were called active. About 5% were inconclusive and are not listed. The call rests on the fitted dose curve; in most records, active means well fitted inhibition curve with a large enough effect; inconclusive means small, poorly fitted or top-dose-only effect; inactive means flat fitted curve, though single readings scatter. The list shows a part of the results.

experiment: Acumen qHTS Assay for Inhibitors of the mTORC1 Signaling Pathway in MEF (Tsc2-/-, p53-/-) Cells: Sytravon; conditions: phospho-rpS6 immunofluorescence/PI, 24 h; series mostly up to 38.3 µM; activity change, negative = inhibition: at the top concentration;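 further: plate controls were DMSO for no effect and rapamycin for full effect; nearly all actives have a fitted effect of over 50% in size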
In short: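 Immunofluorescence of rpS6 phosphorylation in Tsc2-/-, p53-/- MEFs after 24 h compound exposure, normalized to propidium iodide signal. Activity is expressed as % positive cells, thresholded with 7.5 nM rapamycin.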

Activity change, negative = inhibition, inactive:
COc1cccc(N2CC(NC(=O)C3CC3)CC2=O)c1 (stereo unspecified) 3%, Cc1ccc(CCNC(=O)c2ccc(NC(=O)N3CCSc4ccccc43)cc2)cc1 0.833%, Cc1ccc(C)c(N2CCN(c3nc4c(S(=O)(=O)c5ccccc5)nnn4c4ccc(Cl)cc34)CC2)c1 -0.455%, CCOc1ccc2c(c1)c(=O)c(C(=O)c1ccc(CC)cc1)cn2CC(=O)Nc1ccccc1C -5.71%, COc1ccc(N2CCN(c3cc(C)nc4nncn34)CC2)cc1 -1.3%, CCCN(C(=O)c1cc2c(=O)oc3ccccc3c2s1)c1ccccc1C -1.46%, CCC(C)NC(=O)Cn1c(=O)ccc2cc(S(=O)(=O)N3CCCC3)ccc21 (stereo unspecified) -11.7%, CCOC(=O)c1c(S(=O)(=O)N2CCC(C(=O)Nc3cccc(C)n3)CC2)c(C)n(C)c1C 0.395%, COCC(=O)N1c2nc(-c3ccco3)nn2C2(CCCCC2)[C@@H]2CCCC[C@@H]21 -1.83%, CCc1ccc2c(c1)c(=O)c(S(=O)(=O)c1ccccc1)cn2CC(=O)Nc1ccc(OC)cc1 -8.83%, CCOc1cc(CNC(=O)c2ccc3nc(CCc4ccccc4)oc3c2)ccc1OC -7.1%, O=C(CSc1nc2ccsc2c(=O)n1Cc1ccccc1Cl)NCc1ccc(Cl)cc1 -3.51%, O=C(CSc1nc2ccccc2n1Cc1c(F)cccc1Cl)N1CCN(c2ccc(F)cc2)CC1 -4.4%, COc1ccc(NC(=O)CN2C(=O)C3(SCC(=O)N3c3cccc(OC)c3)c3ccccc32)cc1 (stereo unspecified) 3.01%, Cc1ccc(S(=O)(=O)NCCc2csc3nc(-c4ccccc4C)nn23)cc1 2.01%, Cc1ccc(CNC(=O)C(C)n2ccc3cc(S(=O)(=O)N4CCCC4)ccc32)cc1 (stereo unspecified) -6.33%, O=C(c1ccc2c(Cl)c3c(nc2c1)CCCC3)N1CCN(c2ccccc2F)CC1 0.296%, O=C(Nc1nnc(SCc2cc(=O)n3cc(Cl)ccc3n2)s1)c1cccc(F)c1 -3.09%, COc1cccc(C2=CC(c3ccccc3F)n3c(nc4ccccc43)N2)c1 (stereo unspecified) 0.118%, COc1ccc(N2CC(NC(=O)c3c(F)cccc3Cl)CC2=O)cc1OC (stereo unspecified) 0.627%, CCC(C(=O)N1CCN(c2ccccc2)CC1)n1nc(C)c2sc3ccccc3c2c1=O (stereo unspecified) -6.66%, Cc1ccccc1NC(=O)c1cnc2sc(N3CCCC3)nn2c1=O -0.741%, CCOc1ccc(N2CC(c3nc4ccccc4n3CCOc3ccc(CC)cc3)CC2=O)cc1 (stereo unspecified) 5.53%, COc1ccc(Cn2c(=O)[nH]c3cc(C(=O)N4CCN(c5cc(Cl)ccc5C)CC4)ccc3c2=O)cc1 -2.87%, COc1ccccc1-c1noc(-c2ccc(NC(C)C)c([N+](=O)[O-])c2)n1 2.71%, COc1ccc(-c2nn(-c3cccc(F)c3)c3c2cnc2cc(OC)c(OC)cc23)cc1 0%, O=C(CCCCn1c(=O)c2ccccc2n(CC(=O)Nc2cccc(F)c2)c1=O)NCCc1ccccc1 -28.3%, COc1ccc2[nH]cc(S(=O)(=O)c3ccc(C)c(C)c3)c(=O)c2c1 1.26%, CCc1ccc(NC(=O)Cn2cc(S(=O)(=O)N3CCCC3)c(S(=O)(=O)N3CCCC3)c2)cc1 -9.58%, CC(C)NC(=O)CCN1C(=O)c2ccccc2Sc2ncccc21 0.126%, O=C(NC1CC(=O)N(c2ccc(F)cc2)C1)C1CC1 (stereo unspecified) 1.02%, Cc1ccc(NC(=O)Cn2nnc(C(=O)NCc3ccc4c(c3)OCO4)c2N)cc1Cl 2.69%, Cc1cc(C)cc(NC(=O)CCCc2nc(-c3ccccc3Cl)no2)c1 -7.81%, Cn1c(=O)n(CCCc2ccccc2)c(=O)c2c1nc1n2CCN1c1ccc(F)cc1 9.17%, CCOC(=O)c1cc2c(=O)n3ccccc3nc2n(Cc2ccco2)c1=NC(=O)c1ccc(OCC)cc1 0.91%, O=C(c1cc(-c2ccc(O)cc2)on1)N1CCN(c2ccccc2)CC1 -0.0981%, CCCCOC(=O)c1ccc(NC(=O)c2cnc3ccc(C)cn3c2=O)cc1 0.62%, CCn1c(=O)cc(OCC(=O)N2CCN(c3ccc(F)cc3)CC2)c2ccccc21 -12.5%, CCN(c1cccc(C)c1)c1ncnc2c1cnn2-c1cccc(Cl)c1 2.74%, COc1ccc(CN2COc3ccc4c(-c5ccccc5)cc(=O)oc4c3C2)cc1OC -0.676%, COc1cc(OC)c(N(C)C(=O)c2sc3nc4n(c(=O)c3c2C)CCCC4)cc1Cl 5.53%, Cc1nn(C(=O)c2ccc(Br)cc2)c(C)c1Sc1ccccc1 6.62%, Cc1ccc(NC(=O)Cn2c(=O)n(Cc3nc(-c4ccccc4)no3)c(=O)c3cc4c(cc32)OCO4)c(C)c1 0.0656%, COc1ccc(Cl)cc1NC(=O)CSC1=Nc2ccccc2C2=NC(CC(=O)NCc3cccs3)C(=O)N12 (stereo unspecified) -18.4%, COc1ccc(CCNC(=O)CSc2n[nH]c(-c3ccccc3Cl)n2)cc1OC -22%, O=C(NCc1ccccc1)c1cnc(N2CCCCC2)c2ccccc12 -0.0889%, COc1cccc(Nc2nc3ccc(C)cc3nc2-n2nc(C)cc2C)c1 -1.91%, COc1ccc(Nc2c(-c3ccccn3)nc3ccc(Cl)cn23)cc1 -0.126%, CCc1ccc(-n2c(=O)c3cccnc3n2CC(=O)NCc2ccc(C)cc2)cc1 -3.63%, Cc1ccc(NC(=O)C2=CC(c3ccc4c(c3)OCO4)=NS(=O)(=O)N2C)cc1 -1.82%, Cc1ccc(NC(=O)CSc2nc(-c3ccccc3Cl)nc3cc(=O)[nH]n23)c(C)c1 0.0761%, Cc1ccc(C(c2sc3nc(-c4ccco4)nn3c2O)N2CCC3(CC2)OCCO3)cc1 (stereo unspecified) -0.307%, CCc1cccc(Nc2ncnc3onc(-c4ccc(F)cc4)c23)c1 -1.12%, COC(=O)c1c(C)nn(-c2ccc(F)cc2)c1-n1cccc1 0.0904%, COc1ccc(OC)c(C2NC(=O)NC(C)=C2C(=O)Nc2ccc(F)cc2)c1 (stereo unspecified) -4.22%, COc1cccc(N2CCN(S(=O)(=O)c3ccc(-c4ccno4)cc3OC)CC2)c1 -0.475%, O=C(CSc1cn(CC(=O)N2CCCCC2)c2ccccc12)Nc1ccc(C(F)(F)F)cc1 -10.5%, COc1ccc(NC(=O)c2ccco2)cc1NC(=O)COc1ccc(Cl)cc1C 3.21%, Cc1ccc(C(=O)NCc2ccc(F)cc2)cc1NC(=O)c1nsc2ccccc12 -2.34%, CCN(CC)CCNC(=O)c1sc2ncccc2c1-n1cccc1 -5.68%, Cc1cc(C)cc(-n2c(SCC(=O)Nc3ccc4c(c3)OCCO4)nc3c([nH]c4ccccc43)c2=O)c1 1.65%, Cn1cc(S(=O)(=O)c2ccccc2)c(=O)c2cc(F)c(N3CCCCCC3)cc21 -4.01%, Cn1c(=O)n(C)c2cc(N3CCCCC3)c(NC(=O)c3ccc(C(C)(C)C)cc3)cc21 4.49%, COc1ccc(CNC(=O)CCc2nc(-c3ccc(C)cc3)no2)c(OC)c1 -5.42%, O=C(Nc1ccc2nc(SCC(=O)N3CCc4ccccc43)sc2c1)c1ccccc1F 0.547%, CC1=C(c2ccc(C)c(C)c2)S(=O)(=O)N=C1N1CCC(C(=O)NC(C)Cc2ccco2)CC1 (stereo unspecified) 2.33%, COc1cc(C(=O)Nc2nonc2-c2ccc(C)c(C)c2)cc(OC)c1OC 4.11%, COc1ccc(C)cc1-n1cnc2cc(C(=O)NC3CCCC3)ccc21 -1.2%, Cc1ccc(NC(=O)c2ccc(NC(=O)N3CCSc4ncccc43)cc2)c(C)c1 -1.81%, CC1Cc2cc(S(=O)(=O)N(Cc3ccccc3)C(C)C)ccc2N1C(=O)C1CCC1 (stereo unspecified) -0.695%, Cc1ccccc1Nc1c(-c2cccs2)nc2cccc(C)n12 15.9%, Cc1cc(C(=O)Nc2c(C)nc3ccccn3c2=O)ccc1[N+](=O)[O-] -12.6%, CCOc1ccc(/C=C/c2nc(C#N)c(NCCc3ccccc3)o2)cc1 -16.4%, O=C(CSc1nc2c([nH]c3ccccc32)c(=O)n1-c1ccc(Cl)cc1)NCC1CCCO1 (stereo unspecified) -0.0552%, CCOC(=O)c1c(C)oc2nc(C)nc(NCc3ccccc3OC)c12 -2.69%, COc1ccccc1NC(=O)Cn1c(=O)n(CCCCCC(=O)NCc2ccccc2)c(=O)c2sccc21 -34.2%, CC(=O)Nc1ccc(S(=O)(=O)NC2(C(F)(F)F)NC(=O)N(CCc3ccc(F)cc3)C2=O)cc1 (stereo unspecified) 12.5%, CCOc1cc(CNC(=O)Cn2c(-c3cccs3)cc3cc(F)ccc32)ccc1OC -11.2%, Cc1ccc(-n2c(SCC(N)=O)nc3c(oc4ccccc43)c2=O)cc1C -3.15%, Cc1ccc(C)c(N2CCN(Cc3csc(C)c3)CC2)c1 -16.7%, Cc1ccc(C)c(NC(=O)Cn2c(=O)n(Cc3ccccc3)c(=O)c3oc4ccccc4c32)c1 -1.98%, CCOCCCn1c(=N)c(C(=O)NCC2CCCO2)cc2c(=O)n3cccc(C)c3nc21 (stereo unspecified) -4.74%, COC(=O)C1=C(c2ccccc2)c2ccccc2S(=O)(=O)N1CC(=O)Nc1ccccc1Cl -1.6%, Cc1cccc(NS(=O)(=O)c2ccc3c(c2)CCN3C(=O)C2CCC2)c1 2.74%, COC(=O)C1CCN(S(=O)(=O)c2cc3c4c(c2)CC(=O)N4CCC3)CC1 0.749%, O=C(c1cccs1)N1CCCc2cc(NS(=O)(=O)c3ccc(F)cc3F)ccc21 9.62%, CCCN(CCC)CCCNC(=O)Cn1cnc2sc(C)c(S(=O)(=O)N3CCC(C)CC3)c2c1=O 7.54%, O=C(Nc1cccc(F)c1)c1ccc(-c2ccccc2)s1 -5.99%, Cc1ccc(S(=O)(=O)c2cn(Cc3ccccc3Cl)c3ccc(F)cc3c2=O)cc1 -0.925%, COc1ccc2c(c1)NC(c1cccnc1)=NC(c1ccc(F)cc1)=N2 2.04%, COc1ccc(Br)cc1CNC(=O)c1ccc2c(c1)N(Cc1ccc(C)cc1)CCS2 -3.63%, Cc1ccc(CN2C(=O)c3ccccc3Sc3ccc(C(=O)OCc4ccco4)cc32)cc1 0.168%, COCCNC(=O)CSc1nc(-c2ccccc2C)nc2c1c(=O)n(C)c(=O)n2C 8.37%, COc1ccc(CCC(=O)NCCc2csc(-c3ccc(Cl)cc3)n2)cc1 1.83%, NS(=O)(=O)c1ccc2nc(NC(=O)COc3ccccc3)sc2c1 3.73%, CCCN(CCC)C(=O)c1cc2c(=O)n3cccc(C)c3nc2n1C 3.59%
